# Measured values published in the supplement of paper PMC10126150.
# Sequences with one replicate were seen in a single cluster, so their values are uncertain.
# Test system: ATP
# Assay: switch fluorescence ratio, 500 uM ATP over buffer (Cy3 cluster intensity, sum of 5 cycles each) (fold (ratio)); higher = stronger signal-on switching upon ATP binding; sequences stand for … in TCGTCGGCAGCGTCAGATGTGTATAAGAGACAGTTTTTTTTTTTTTTTTTTTTTTTTT…TC
# Settings: aptamer strand: ATP DNA aptamer (quencher-CACCTGGGGGAGTATTGCGGAGGAAGG + anchor), 100 nM annealed; ATP concentration: 500 uM; one replicate
# Outline: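 The fluorescence ratio divides summed target-cycle Cy3 intensity by summed buffer-cycle Cy3 intensity for each cluster and is averaged per switch-domain sequence. Cy3-labelled switching-strand clusters on a modified Illumina MiSeq flow-cell were annealed to 100 nM quencher-labelled ATP aptamer, then imaged in selection buffer and again after 15 min with 500 uM ATP at 22 °C. Five such cycles were run, with NaOH stripping and re-annealing between them, and clusters outside 100-1000 RFU were excluded.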
# 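Further: ATP exposure 15 min at 22 °C before imaging.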
row,Sequence,switch fluorescence ratio
1,AACGGTTGTT,1.01
2,AACGTAGGCA,1.05
3,AACGTATTTC,1.1
4,AACGTCACTT,1.67
5,AACGTCCTGT,1.04
6,AACGTCTAAC,1.16
7,AACGTCTTGA,1.07
8,AACGTGGAAA,1.01
9,AACGTGGACC,1.1
10,AACGTGTAGG,0.994
11,AACGTTGATC,0.997
12,AACTAATAGA,0.99
13,AACTAGTCTT,0.974
14,AACTCAAGGA,0.991
15,AACTCAGCCC,1.05
16,AACTCCCGGG,1.54
17,AACTCGATGG,0.957
18,AACTCTGTAT,0.982
19,AACTGATCGT,0.982
20,AACTGGAA,1.06
21,AACTGGAAGT,1.02
22,AACTGGACTG,1.1
23,AACTGGCGCC,1
24,AACTGTCATG,1.03
25,AACTGTCGAC,0.994
26,AACTTACTAA,1.15

row,Sequence,switch fluorescence ratio
1,AACTTAGGCT,1.03
2,AACTTATCGT,0.986
3,AACTTATTAT,0.999
4,AACTTGAGTT,0.995
5,AACTTGCAAT,0.999
6,AACTTGCGAT,1.05
7,AACTTGGACG,0.982
8,AACTTGTGCG,1.04
9,AACTTTGGCA,0.984
10,AACTTTTC,1.07
11,AAGAAAAAAT,0.983
12,AAGAAAGCGG,0.95
13,AAGAACCAGC,1.01
14,AAGAACTTGG,1
15,AAGAAGAAAC,0.901
16,AAGAATACCG,0.99
17,AAGAATACTT,1.29
18,AAGACAATT,1.04
19,AAGACCTCGA,0.979
20,AAGACGTTCC,2.07
21,AAGACTGGGG,1.02
22,AAGAGAGGAT,1.02
23,AAGAGCCAGG,1.09
24,AAGAGCGTC,1.01
25,AAGAGCTGAT,0.947
26,AAGAGGAATA,0.949

row,Sequence,switch fluorescence ratio
1,AAGAGGCTTT,1.05
2,AAGAGGGCTC,1.03
3,AAGAGTCAAC,0.961
4,AAGAGTCTGC,0.981
5,AAGAGTGAGT,1
6,AAGAGTTAGC,1.15
7,AAGAGTTCTA,1.04
8,AAGATACAGG,1.07
9,AAGATAGTGG,1.02
10,AAGATCTTTG,0.98
11,AAGATGAGAG,1.05
12,AAGATGTAGA,1.06
13,AAGATTAATT,0.996
14,AAGATTGAGA,0.976
15,AAGATTTGGT,1.01
16,AAGCAAACT,1.5
17,AAGCACGAG,1.15
18,AAGCAGGATG,1.01
19,AAGCAGGTCT,1.06
20,AAGCAGTACT,2.91
21,AAGCCATTAA,0.93
22,AAGCCATTAG,1.01
23,AAGCCCTTAC,1.66
24,AAGCCGCCTG,0.992
25,AAGCCTGAAT,0.978
26,AAGCCTTTTA,0.995

row,Sequence,switch fluorescence ratio
1,AAGCGAGTGT,1
2,AAGCGCGCCA,1.03
3,AAGCGGGCAC,0.999
4,AAGCGTCGAA,0.961
5,AAGCGTGCAG,1.03
6,AAGCTAAGGA,0.998
7,AAGCTAGACG,0.974
8,AAGCTAGGTA,0.999
9,AAGCTATTT,0.996
10,AAGCTCGCGG,1.03
11,AAGCTTATCG,1.04
12,AAGCTTGCGT,1
13,AAGCTTGCTG,0.995
14,AAGGAACAGC,1.01
15,AAGGAGATTA,1
16,AAGGAGGAG,0.96
17,AAGGATAGCA,0.999
18,AAGGATAGGT,1.03
19,AAGGCAAAGT,1
20,AAGGCAGAGG,0.979
21,AAGGCATGCC,0.965
22,AAGGCCTGGG,0.977
23,AAGGCGTTAC,1.28
24,AAGGCTAGCG,1
25,AAGGCTCATT,0.98
26,AAGGCTCG,0.991

row,Sequence,switch fluorescence ratio
1,AAGGCTCGT,1.02
2,AAGGGACCTG,1.01
3,AAGGGATGAC,0.979
4,AAGGGCAGCC,0.963
5,AAGGGCCTTT,1.02
6,AAGGGGCAGA,1.01
7,AAGGGGCTG,1.01
8,AAGGGGGACG,0.986
9,AAGGGGGCA,0.989
10,AAGGGGGCTC,1.07
11,AAGGGTAAG,1.04
12,AAGGGTAGAG,1
13,AAGGGTGAGA,0.996
14,AAGGGTTATC,1.02
15,AAGGTAATGT,1.01
16,AAGGTAGTCG,1
17,AAGGTGCGCT,0.979
18,AAGGTGCTCG,1.02
19,AAGGTGTAAG,1.03
20,AAGGTGTCAA,0.993
21,AAGGTGTGA,1.01
22,AAGGTGTGAG,0.971
23,AAGTAACGCA,1.05
24,AAGTAAGATG,0.954
25,AAGTAAGGGT,1.01
26,AAGTAATACG,1.23

row,Sequence,switch fluorescence ratio
1,AAGTACCCCG,1.09
2,AAGTACCG,1.11
3,AAGTACGAGC,1.2
4,AAGTACGGTT,1.29
5,AAGTAGCGAC,1.03
6,AAGTAGGGAA,0.962
7,AAGTAGGGCA,0.973
8,AAGTCAATGG,1.24
9,AAGTCAGAAG,1.02
10,AAGTCATTT,0.973
11,AAGTCGGGTC,0.948
12,AAGTCGTTGC,0.978
13,AAGTCTGGAT,0.998
14,AAGTCTTCGG,0.967
15,AAGTGAAGTA,0.972
16,AAGTGAGATT,1.03
17,AAGTGCAGTC,1.08
18,AAGTGCGAAT,0.982
19,AAGTGCGAGC,1.06
20,AAGTGGCGGT,1.01
21,AAGTGGCTTC,0.972
22,AAGTGGGACT,1.04
23,AAGTGGGGAT,0.996
24,AAGTGTTGGT,0.925
25,AAGTTAAAGA,1.07
26,AAGTTCGGTA,0.986

row,Sequence,switch fluorescence ratio
1,AAGTTGACAA,1.05
2,AAGTTGTCAG,1.03
3,AAGTTTGCGC,0.975
4,AATAAAAAAT,1.02
5,AATAAAAACA,1.03
6,AATAAAATGC,0.98
7,AATAAAATGT,0.968
8,AATAAACCCC,1.14
9,AATAAAGCAC,1.1
10,AATAAAGTCA,1.04
11,AATAACACAC,1.27
12,AATAACACGG,1.04
13,AATAACGGCT,1.06
14,AATAAGAGGT,1.08
15,AATAAGATAC,1.25
16,AATAAGTCCA,1.02
17,AATACAGTTT,1.01
18,AATACCACGA,1.13
19,AATACCGGTT,1.02
20,AATACGGGAT,1.05
21,AATACTATAT,1.04
22,AATACTCGTT,1.05
23,AATAGACTGT,0.968
24,AATAGGAGTG,0.989
25,AATAGGTGAT,1.03
26,AATAGTAGAT,0.975

row,Sequence,switch fluorescence ratio
1,AATAGTGGCG,0.964
2,AATAGTTAGT,0.978
3,AATAGTTGAG,0.971
4,AATATACATA,1.08
5,AATATGTCC,1.01
6,AATATTCTTG,1.01
7,AATATTGGCG,0.946
8,AATATTTGT,0.982
9,AATCAAAGGT,1.03
10,AATCAACTCG,1.01
11,AATCAAGAAC,1.08
12,AATCAATTG,0.996
13,AATCACCCCC,1.83
14,AATCAGAATG,0.989
15,AATCAGGC,0.974
16,AATCATCGCT,1.03
17,AATCATTAAA,0.975
18,AATCATTAGA,0.955
19,AATCATTCTG,0.971
